# PMC9911399, “Two distinct binding modes provide the RNA-binding protein RbFox with extraordinary sequence specificity”
# Numbering of substitutions follows the chain as printed; changes in the protein carry UniProt numbers. The list shows a part of the results.
# T1: RBFOX1 RRM RbFoxmut (Fox-RRM*) (Homo sapiens, UniProt Q9NWB1 109-208, R118D;E147R;N151S;E152T)
# T1 sequence: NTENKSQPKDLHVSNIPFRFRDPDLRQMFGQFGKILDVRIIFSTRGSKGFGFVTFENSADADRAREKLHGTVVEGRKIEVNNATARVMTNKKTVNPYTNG
# B1: UCGUCUA (DNA:RNA)
# RNA: GGGAGACCGGAAUUCAGAUUGUCCUCGUCUAUUAAAUCCCGUCGUAGCCACCA
# DNA 1: CAATCTGAATTCCGGTCTCCC
# DNA 2: TGGTGGCTACGACGGGATT
# B2: GGCAUCG (DNA:RNA)
# RNA: GGGAGACCGGAAUUCAGAUUGUCCGGCAUCGUUAAAUCCCGUCGUAGCCACCA
# DNA 1: CAATCTGAATTCCGGTCTCCC
# DNA 2: TGGTGGCTACGACGGGATT
# B3: CGCGGUG (DNA:RNA)
# RNA: B2 RNA with G25C, A28G, U29G, C30U
# DNA 1: CAATCTGAATTCCGGTCTCCC
# DNA 2: TGGTGGCTACGACGGGATT
# B4: GACUUCC (DNA:RNA)
# RNA: B2 RNA with G26A, A28U, G31C
# DNA 1: CAATCTGAATTCCGGTCTCCC
# DNA 2: TGGTGGCTACGACGGGATT
# B5: CCUUUGG (DNA:RNA)
# RNA: B2 RNA with G25C, G26C, C27U, A28U, C30G
# DNA 1: CAATCTGAATTCCGGTCTCCC
# DNA 2: TGGTGGCTACGACGGGATT
# B6: GCGGACG (DNA:RNA)
# RNA: B2 RNA with G26C, C27G, A28G, U29A
# DNA 1: CAATCTGAATTCCGGTCTCCC
# DNA 2: TGGTGGCTACGACGGGATT
# B7: AUAUUGA (DNA:RNA)
# RNA: B1 RNA with U25A, C26U, G27A, C29U, U30G
# DNA 1: CAATCTGAATTCCGGTCTCCC
# DNA 2: TGGTGGCTACGACGGGATT
# B8: GAACGAA (DNA:RNA)
# RNA: B2 RNA with G26A, C27A, A28C, U29G, C30A, G31A
# DNA 1: CAATCTGAATTCCGGTCTCCC
# DNA 2: TGGTGGCTACGACGGGATT
# B9: ACAACUA (DNA:RNA)
# RNA: B1 RNA with U25A, G27A, U28A
# DNA 1: CAATCTGAATTCCGGTCTCCC
# DNA 2: TGGTGGCTACGACGGGATT
# B10: AGUUAUU (DNA:RNA)
# RNA: B1 RNA with U25A, C26G, G27U, C29A, A31U
# DNA 1: CAATCTGAATTCCGGTCTCCC
# DNA 2: TGGTGGCTACGACGGGATT
# B11: CUCUUAA (DNA:RNA)
# RNA: B2 RNA with G25C, G26U, A28U, C30A, G31A
# DNA 1: CAATCTGAATTCCGGTCTCCC
# DNA 2: TGGTGGCTACGACGGGATT
# B12: UGGCAGU (DNA:RNA)
# RNA: B1 RNA with C26G, U28C, C29A, U30G, A31U
# DNA 1: CAATCTGAATTCCGGTCTCCC
# DNA 2: TGGTGGCTACGACGGGATT
# B13: CCCAAUG (DNA:RNA)
# RNA: B2 RNA with G25C, G26C, U29A, C30U
# DNA 1: CAATCTGAATTCCGGTCTCCC
# DNA 2: TGGTGGCTACGACGGGATT
# B14: UUAGUCG (DNA:RNA)
# RNA: B2 RNA with G25U, G26U, C27A, A28G
# DNA 1: CAATCTGAATTCCGGTCTCCC
# DNA 2: TGGTGGCTACGACGGGATT
# B15: GGGACUG (DNA:RNA)
# RNA: B2 RNA with C27G, U29C, C30U
# DNA 1: CAATCTGAATTCCGGTCTCCC
# DNA 2: TGGTGGCTACGACGGGATT
# B16: CUGUUCA (DNA:RNA)
# RNA: B1 RNA with U25C, C26U, C29U, U30C
# DNA 1: CAATCTGAATTCCGGTCTCCC
# DNA 2: TGGTGGCTACGACGGGATT
# B17: AAUAUCC (DNA:RNA)
# RNA: B2 RNA with G25A, G26A, C27U, G31C
# DNA 1: CAATCTGAATTCCGGTCTCCC
# DNA 2: TGGTGGCTACGACGGGATT
# B18: UGACUGA (DNA:RNA)
# RNA: B2 RNA with G25U, C27A, A28C, C30G, G31A
# DNA 1: CAATCTGAATTCCGGTCTCCC
# DNA 2: TGGTGGCTACGACGGGATT
# B19: CCAACAG (DNA:RNA)
# RNA: B2 RNA with G25C, G26C, C27A, U29C, C30A
# DNA 1: CAATCTGAATTCCGGTCTCCC
# DNA 2: TGGTGGCTACGACGGGATT
# B20: GAUUAGU (DNA:RNA)
# RNA: B2 RNA with G26A, C27U, A28U, U29A, C30G, G31U
# DNA 1: CAATCTGAATTCCGGTCTCCC
# DNA 2: TGGTGGCTACGACGGGATT
# Target: T1, RBFOX1 RRM RbFoxmut (Fox-RRM*)
# Assay: EMSA; HiTS-Eq, 1 nM pool, 10 min; buffer printed only for the single-RNA assays: 10 mM Tris pH 7.5, 150 mM NaCl, 3.4 mM EDTA, 0.001% NP-40, 30 C
# Conditions: tags: His6 N-terminal (pET28a); label: 5' 32P
# Outline: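 Purified wild-type or mutant RbFox RRM at increasing concentrations was equilibrated with 1 nM of 5′-radiolabelled RNA carrying 7 randomized nucleotides for 10 min in 50 µL. Unbound RNA was separated by 8% native PAGE and sequenced. Relative association constants came from read-count changes of each RNA species compared with the control reaction, normalised to the cognate motif.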
row,Binder,binding signal
1,B1,0.0946 KA relative to UGCAUGU
2,B2,0.467 KA relative to UGCAUGU
3,B3,0.165 KA relative to UGCAUGU
4,B4,0.0416 KA relative to UGCAUGU
5,B5,0.0899 KA relative to UGCAUGU
6,B6,0.082 KA relative to UGCAUGU
7,B7,0.111 KA relative to UGCAUGU
8,B8,0.297 KA relative to UGCAUGU
9,B9,0.0743 KA relative to UGCAUGU
10,B10,0.102 KA relative to UGCAUGU
11,B11,0.0994 KA relative to UGCAUGU
12,B12,0.0775 KA relative to UGCAUGU
13,B13,0.0892 KA relative to UGCAUGU
14,B14,0.112 KA relative to UGCAUGU
15,B15,0.266 KA relative to UGCAUGU
16,B16,0.141 KA relative to UGCAUGU
17,B17,0.0854 KA relative to UGCAUGU
18,B18,0.28 KA relative to UGCAUGU
19,B19,0.108 KA relative to UGCAUGU
20,B20,0.117 KA relative to UGCAUGU
